# Assay results reported in the supplement of paper PMC8728848.
# Some of the results follow.
# How the values were obtained:
# Experiment in all cases: glycan array binding signal (z-score within array); higher = stronger binding
# Conditions in all cases: glycan notation: IUPAC condensed, linker removed
# [1] = target: Gal(b1-3)GlcNAc(b1-3)Gal(b1-4)GlcNAc(b1-6)[Gal(b1-3)GlcNAc(b1-3)]Gal(b1-4)Glc
# How it was run: (§1)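 The binding signal is a Z-score computed within each array. Data were drawn from 3228 arrays in the Consortium for Functional Glycomics database, restricted to those with a known protein sequence. Scores were averaged over arrays of the same protein sequence at different concentrations or buffers, and over linkers, and negative values can be taken as non-binding.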
# [2] = target: Gal(b1-3)GlcNAc(b1-3)Gal(b1-4)[Fuc(a1-3)]GlcNAc(b1-6)[Gal(b1-3)GlcNAc(b1-3)]Gal(b1-4)Glc
# How it was run: as §1
# [3] = target: Gal(b1-3)GlcNAc(b1-3)GalNAc
# How it was run: as §1
# [4] = target: Gal(b1-3)GlcNAc(b1-6)Gal(b1-4)GlcNAc
# How it was run: as §1
# [5] = target: Gal(b1-3)[Fuc(a1-4)]GlcNAc
# How it was run: as §1
# [6] = target: Gal(b1-3)[Fuc(a1-4)]GlcNAc(b1-2)Man(a1-3)[Gal(b1-3)[Fuc(a1-4)]GlcNAc(b1-2)Man(a1-6)]Man(b1-4)GlcNAc(b1-4)GlcNAc
# How it was run: as §1
# [7] = target: Gal(b1-3)[Fuc(a1-4)]GlcNAc(b1-2)Man(a1-3)[Gal(b1-3)[Fuc(a1-4)]GlcNAc(b1-2)Man(a1-6)]Man(b1-4)GlcNAc(b1-4)[Fuc(a1-6)]GlcNAc
# How it was run: as §1
# [8] = target: Gal(b1-3)[Fuc(a1-4)]GlcNAc(b1-3)Gal(b1-3)[Fuc(a1-4)]GlcNAc
# How it was run: as §1
# [9] = target: Gal(b1-3)[Fuc(a1-4)]GlcNAc(b1-3)Gal(b1-4)GlcNAc
# How it was run: as §1
# [10] = target: Gal(b1-3)[Fuc(a1-4)]GlcNAc(b1-3)Gal(b1-4)[Fuc(a1-3)]GlcNAc
# How it was run: as §1
# [11] = target: Gal(b1-3)[GlcNAc(b1-6)]GalNAc
# How it was run: as §1
# [12] = target: Gal(b1-3)[Neu5Ac(a2-6)]GalNAc
# How it was run: as §1
# [13] = target: Gal(b1-3)[Neu5Ac(a2-6)]GlcNAc(b1-6)Gal(b1-4)Glc
# How it was run: as §1
# [14] = target: Gal(b1-3)[Neu5Ac(b2-6)]GalNAc
# How it was run: as §1
# Gal(b1-4)Gal = target: Gal(b1-4)Gal
# How it was run: as §1
# [15] = target: Gal(b1-4)GalNAc(a1-3)[Fuc(a1-2)]Gal(b1-4)GlcNAc
# How it was run: as §1
# [16] = target: Gal(b1-4)GalNAc(b1-3)[Fuc(a1-2)]Gal(b1-4)GlcNAc
# How it was run: as §1
# Gal(b1-4)Glc = target: Gal(b1-4)Glc
# How it was run: as §1
# Gal(b1-4)Glc6S = target: Gal(b1-4)Glc6S
# How it was run: as §1
# Gal(b1-4)GlcNAc = target: Gal(b1-4)GlcNAc
# How it was run: as §1
# [17] = target: Gal(b1-4)GlcNAc(a1-6)Gal(b1-4)GlcNAc
# How it was run: as §1
# Gal(b1-4)GlcNAc(b1-2)Man = target: Gal(b1-4)GlcNAc(b1-2)Man
# How it was run: as §1
# [18] = target: Gal(b1-4)GlcNAc(b1-2)Man(a1-3)Man(b1-4)GlcNAc(b1-4)GlcNAc
# How it was run: as §1
# [19] = target: Gal(b1-4)GlcNAc(b1-2)Man(a1-3)[Gal(b1-4)GlcNAc(b1-2)Man(a1-6)]Man(b1-4)GlcNAc(b1-4)GlcNAc
# How it was run: as §1
# [20] = target: Gal(b1-4)GlcNAc(b1-2)Man(a1-3)[Gal(b1-4)GlcNAc(b1-2)Man(a1-6)]Man(b1-4)GlcNAc(b1-4)[Fuc(a1-6)]GlcNAc
# How it was run: as §1
# [21] = target: Gal(b1-4)GlcNAc(b1-2)Man(a1-3)[Gal(b1-4)GlcNAc(b1-2)][GlcNAc(b1-4)]Man(b1-4)GlcNAc(b1-4)GlcNAc
# How it was run: as §1
# [22] = target: Gal(b1-4)GlcNAc(b1-2)Man(a1-3)[GlcNAc(b1-2)Man(a1-6)]Man(b1-4)GlcNAc(b1-4)GlcNAc
# How it was run: as §1
# [23] = target: Gal(b1-4)GlcNAc(b1-2)Man(a1-3)[Man(a1-6)]Man(b1-4)GlcNAc(b1-4)GlcNAc
# How it was run: as §1
# [24] = target: Gal(b1-4)GlcNAc(b1-2)Man(a1-6)Man(b1-4)GlcNAc(b1-4)GlcNAc
# How it was run: as §1
# [25] = target: Gal(b1-4)GlcNAc(b1-2)Man(a1-6)[GlcNAc(b1-2)Man(a1-3)]Man(b1-4)GlcNAc(b1-4)GlcNAc
# How it was run: as §1
# [26] = target: Gal(b1-4)GlcNAc(b1-2)Man(a1-6)[Man(a1-3)]Man(b1-4)GlcNAc(b1-4)GlcNAc
# How it was run: as §1
# [27] = target: Gal(b1-4)GlcNAc(b1-2)[Gal(b1-4)GlcNAc(b1-4)]Man(a1-3)[Gal(b1-4)GlcNAc(b1-2)Man(a1-6)]Man(b1-4)GlcNAc(b1-4)GlcNAc
# How it was run: as §1
# [28] = target: Gal(b1-4)GlcNAc(b1-2)[Gal(b1-4)GlcNAc(b1-4)]Man(a1-3)[Gal(b1-4)GlcNAc(b1-2)[Gal(b1-4)GlcNAc(b1-6)]Man(a1-6)]Man(b1-4)GlcNAc(b1-4)GlcNAc
# How it was run: as §1
# [29] = target: Gal(b1-4)GlcNAc(b1-2)[Gal(b1-4)GlcNAc(b1-4)]Man(a1-3)[GlcNAc(b1-4)][Gal(b1-4)GlcNAc(b1-2)Man(a1-6)]Man(b1-4)GlcNAc(b1-4)GlcNAc
# How it was run: as §1
# [30] = target: Gal(b1-4)GlcNAc(b1-2)[Gal(b1-4)GlcNAc(b1-4)]Man(a1-3)[GlcNAc(b1-4)][Gal(b1-4)GlcNAc(b1-2)[Gal(b1-4)GlcNAc(b1-6)]Man(a1-6)]Man(b1-4)GlcNAc(b1-4)GlcNAc
# How it was run: as §1
# [31] = target: Gal(b1-4)GlcNAc(b1-2)[Gal(b1-4)GlcNAc(b1-6)]Man(a1-6)[Gal(b1-4)GlcNAc(b1-2)Man(a1-3)]Man(b1-4)GlcNAc(b1-4)GlcNAc
# How it was run: as §1
# [32] = target: Gal(b1-4)GlcNAc(b1-2)[Gal(b1-4)GlcNAc(b1-6)]Man(a1-6)[GlcNAc(b1-4)][Gal(b1-4)GlcNAc(b1-2)Man(a1-3)]Man(b1-4)GlcNAc(b1-4)GlcNAc
# How it was run: as §1
# [33] = target: Gal(b1-4)GlcNAc(b1-3)Gal(b1-3)GlcNAc
# How it was run: as §1
binder,measurement,setting,value
"AFL (Aspergillus fumigatus), Q4WW81 (protein) STPGAQQVLFRTGIAAVNLTNHLRVYFQDVYGSIRESLYEGSWANGTEKNVIGNAKLGSPVAATSKELKHIRVYTLTEGNTLQEFAYDSGTGWYNGGLGGAKFQVAPYSRIAAVFLAGTDALQLRIYAQKPDNTIQEYMWNGDGWKEGTNLGGALPGTGIGATSFRYTDYNGPSIRIWFQTDDLKLVQRAYDPHKGWYPDLVTIFDRAPPRTAIAATSFGAGNSSIYMRIYFVNSDNTIWQVCWDHGKGYHDKGTITPVIQGSEVAIISWGSFANNGPDLRLYFQNGTYISAVSEWVWNRAHGSQLGRSALPPA",glycan array binding signal (z-score),[1],-0.382
same,glycan array binding signal (z-score),[2],-0.124
same,glycan array binding signal (z-score),[3],-0.391
same,glycan array binding signal (z-score),[4],-0.387
same,glycan array binding signal (z-score),[5],2.16
same,glycan array binding signal (z-score),[6],-0.358
same,glycan array binding signal (z-score),[7],-0.059
same,glycan array binding signal (z-score),[8],1.72
same,glycan array binding signal (z-score),[9],0.317
same,glycan array binding signal (z-score),[10],2.7
same,glycan array binding signal (z-score),[11],-0.383
same,glycan array binding signal (z-score),[12],-0.38
same,glycan array binding signal (z-score),[13],-0.386
same,glycan array binding signal (z-score),[14],-0.386
same,glycan array binding signal (z-score),Gal(b1-4)Gal,-0.38
same,glycan array binding signal (z-score),[15],-0.11
same,glycan array binding signal (z-score),[16],-0.329
same,glycan array binding signal (z-score),Gal(b1-4)Glc,-0.383
same,glycan array binding signal (z-score),Gal(b1-4)Glc6S,-0.388
same,glycan array binding signal (z-score),Gal(b1-4)GlcNAc,-0.376
same,glycan array binding signal (z-score),[17],-0.386
same,glycan array binding signal (z-score),Gal(b1-4)GlcNAc(b1-2)Man,-0.368
same,glycan array binding signal (z-score),[18],-0.367
same,glycan array binding signal (z-score),[19],-0.386
same,glycan array binding signal (z-score),[20],1.32
same,glycan array binding signal (z-score),[21],-0.385
same,glycan array binding signal (z-score),[22],-0.381
same,glycan array binding signal (z-score),[23],-0.351
same,glycan array binding signal (z-score),[24],-0.384
same,glycan array binding signal (z-score),[25],-0.38
same,glycan array binding signal (z-score),[26],-0.383
same,glycan array binding signal (z-score),[27],-0.304
same,glycan array binding signal (z-score),[28],-0.354
same,glycan array binding signal (z-score),[29],-0.375
same,glycan array binding signal (z-score),[30],-0.368
same,glycan array binding signal (z-score),[31],-0.356
same,glycan array binding signal (z-score),[32],-0.37
same,glycan array binding signal (z-score),[33],-0.379
